Assay results taken from the supplement of paper PMC8728848.
The list shows a part of the results.

Experiments:
Test in all cases: glycan array binding signal (z-score within array); higher = stronger binding
Settings in all cases: glycan notation: IUPAC condensed, linker removed
Neu5Ac(a2-6)Gal(b1-4)Glc = molecular target: Neu5Ac(a2-6)Gal(b1-4)Glc
In short: (§1)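 From the Consortium for Functional Glycomics database, 3228 arrays were curated, keeping only those whose protein sequence was available. Binding is given as a within-array Z-score averaged across arrays sharing a protein sequence and across linkers. Negative Z-scores can be read as non-binding.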

[1] = molecular target: Neu5Ac(a2-6)Gal(b1-4)GlcNAc
In short: as §1

[2] = molecular target: Neu5Ac(a2-6)Gal(b1-4)GlcNAc(b1-2)Man(a1-3)Man(b1-4)GlcNAc(b1-4)GlcNAc
In short: as §1

[3] = molecular target: Neu5Ac(a2-6)Gal(b1-4)GlcNAc(b1-2)Man(a1-3)[Gal(b1-4)GlcNAc(b1-2)Man(a1-6)]Man(b1-4)GlcNAc(b1-4)GlcNAc
In short: as §1

[4] = molecular target: Neu5Ac(a2-6)Gal(b1-4)GlcNAc(b1-2)Man(a1-3)[GlcNAc(b1-2)Man(a1-6)]Man(b1-4)GlcNAc(b1-4)GlcNAc
In short: as §1

[5] = molecular target: Neu5Ac(a2-6)Gal(b1-4)GlcNAc(b1-2)Man(a1-3)[GlcNAc(b1-2)Man(b1-4)GlcNAc(b1-2)Man(a1-6)]Man(b1-4)GlcNAc(b1-4)GlcNAc
In short: as §1

[6] = molecular target: Neu5Ac(a2-6)Gal(b1-4)GlcNAc(b1-2)Man(a1-3)[Man(a1-6)]Man(b1-4)GlcNAc(b1-4)GlcNAc
In short: as §1

[7] = molecular target: Neu5Ac(a2-6)Gal(b1-4)GlcNAc(b1-2)Man(a1-3)[Neu5Ac(a2-6)Gal(b1-4)GlcNAc(b1-2)Man(a1-6)]Man(b1-4)GlcNAc(b1-4)GlcNAc
In short: as §1

[8] = molecular target: Neu5Ac(a2-6)Gal(b1-4)GlcNAc(b1-2)Man(a1-6)Man(b1-4)GlcNAc(b1-4)GlcNAc
In short: as §1

[9] = molecular target: Neu5Ac(a2-6)Gal(b1-4)GlcNAc(b1-2)Man(a1-6)[Gal(b1-4)GlcNAc(b1-2)Man(a1-3)]Man(b1-4)GlcNAc(b1-4)GlcNAc
In short: as §1

[10] = molecular target: Neu5Ac(a2-6)Gal(b1-4)GlcNAc(b1-2)Man(a1-6)[GlcNAc(b1-2)Man(a1-3)]Man(b1-4)GlcNAc(b1-4)GlcNAc
In short: as §1

[11] = molecular target: Neu5Ac(a2-6)Gal(b1-4)GlcNAc(b1-2)Man(a1-6)[Man(a1-3)]Man(b1-4)GlcNAc(b1-4)GlcNAc
In short: as §1

[12] = molecular target: Neu5Ac(a2-6)Gal(b1-4)GlcNAc(b1-3)Gal(b1-3)GlcNAc
In short: as §1

[13] = molecular target: Neu5Ac(a2-6)Gal(b1-4)GlcNAc(b1-3)Gal(b1-4)GlcNAc
In short: as §1

[14] = molecular target: Neu5Ac(a2-6)Gal(b1-4)GlcNAc(b1-3)Gal(b1-4)GlcNAc(b1-3)Gal(b1-4)GlcNAc
In short: as §1

[15] = molecular target: Neu5Ac(a2-6)Gal(b1-4)GlcNAc(b1-3)Gal(b1-4)[Fuc(a1-3)]GlcNAc(b1-3)Gal(b1-4)[Fuc(a1-3)]GlcNAc
In short: as §1

[16] = molecular target: Neu5Ac(a2-6)Gal(b1-4)GlcNAc(b1-3)GalNAc
In short: as §1

[17] = molecular target: Neu5Ac(a2-6)Gal(b1-4)GlcNAc6S
In short: as §1

Neu5Ac(a2-6)GalNAc = molecular target: Neu5Ac(a2-6)GalNAc
In short: as §1

[18] = molecular target: Neu5Ac(a2-6)GalNAc(b1-4)GlcNAc
In short: as §1

[19] = molecular target: Neu5Ac(a2-6)GlcNAc(b1-4)GlcNAc
In short: as §1

[20] = molecular target: Neu5Ac(a2-6)GlcNAc(b1-4)GlcNAc(b1-4)GlcNAc
In short: as §1

Neu5Ac(a2-8)Neu5Ac = molecular target: Neu5Ac(a2-8)Neu5Ac
In short: as §1

[21] = molecular target: Neu5Ac(a2-8)Neu5Ac(a2-3)Gal(b1-4)Glc
In short: as §1

[22] = molecular target: Neu5Ac(a2-8)Neu5Ac(a2-3)[GalNAc(b1-4)]Gal(b1-4)Glc
In short: as §1

[23] = molecular target: Neu5Ac(a2-8)Neu5Ac(a2-8)Neu5Ac
In short: as §1

[24] = molecular target: Neu5Ac(a2-8)Neu5Ac(a2-8)Neu5Ac(a2-3)Gal(b1-4)Glc
In short: as §1

[25] = molecular target: Neu5Ac(a2-8)Neu5Ac(a2-8)Neu5Ac(a2-3)[GalNAc(b1-4)]Gal(b1-4)Glc
In short: as §1

[26] = molecular target: Neu5Ac(a2-8)Neu5Ac(a2-8)Neu5Ac(a2-8)Neu5Ac(a2-3)[GalNAc(b1-4)]Gal(b1-4)Glc
In short: as §1

[27] = molecular target: Neu5Ac(b2-6)Gal(b1-4)GlcNAc
In short: as §1

Neu5Ac(b2-6)GalNAc = molecular target: Neu5Ac(b2-6)GalNAc
In short: as §1

[28] = molecular target: Neu5Ac9Ac(a2-3)Gal(b1-3)GlcNAc
In short: as §1

[29] = molecular target: Neu5Ac9Ac(a2-3)Gal(b1-4)GlcNAc
In short: as §1

[30] = molecular target: Neu5Ac9Ac(a2-6)Gal(b1-4)GlcNAc
In short: as §1

[31] = molecular target: Neu5Gc(a2-3)Gal(b1-3)GlcNAc
In short: as §1

[32] = molecular target: Neu5Gc(a2-3)Gal(b1-3)[Fuc(a1-4)]GlcNAc
In short: as §1

Neu5Gc(a2-3)Gal(b1-4)Glc = molecular target: Neu5Gc(a2-3)Gal(b1-4)Glc
In short: as §1

[33] = molecular target: Neu5Gc(a2-3)Gal(b1-4)GlcNAc
In short: as §1

[34] = molecular target: Neu5Gc(a2-3)Gal(b1-4)[Fuc(a1-3)]GlcNAc
In short: as §1

[35] = molecular target: Neu5Gc(a2-6)Gal(b1-4)GlcNAc
In short: as §1

Neu5Gc(a2-6)GalNAc = molecular target: Neu5Gc(a2-6)GalNAc
In short: as §1

[36] = molecular target: Neu5Gc(b2-6)Gal(b1-4)GlcNAc
In short: as §1

B1: Ficolin B (Rattus norvegicus), P57756 (protein)
chain: MVLGSAALFVLSLCVTELTLHAADTCPEVKVLDLEGSNKLTILQGCPGLPGALGPKGEAGAKGDRGESGLPGHPGKAGPTGPKGDRGEKGVRGEKGDTGPSQSCATGPRTCKELLTRGYFLTGWYTIYLPDCRPLTVLCDMDTDGGGWTVFQRRIDGTVDFFRDWTSYKQGFGSQLGEFWLGNDNIHALTTQGTNELRVDLADFDGNHDFAKYSSFQIQGEAEKYKLILGNFLGGGAGDSLTSQNNMLFSTKDQDNDQGSSNCAVRYHGAWWYSDCHTSNLNGLYLRGLHKSYANGVNWKSWKGYNYSYKVSEMKVRLI
- glycan array binding signal (z-score) (Neu5Ac(a2-6)Gal(b1-4)Glc): -0.202
- glycan array binding signal (z-score) [1]: -0.17
- glycan array binding signal (z-score) [2]: -0.173
- glycan array binding signal (z-score) [3]: -0.193
- glycan array binding signal (z-score) [4]: -0.22
- glycan array binding signal (z-score) [5]: 0.578
- glycan array binding signal (z-score) [6]: -0.201
- glycan array binding signal (z-score) [7]: -0.163
- glycan array binding signal (z-score) [8]: -0.222
- glycan array binding signal (z-score) [9]: -0.166
- glycan array binding signal (z-score) [10]: -0.092
- glycan array binding signal (z-score) [11]: -0.174
- glycan array binding signal (z-score) [12]: 0.054
- glycan array binding signal (z-score) [13]: -0.146
- glycan array binding signal (z-score) [14]: -0.141
- glycan array binding signal (z-score) [15]: -0.204
- glycan array binding signal (z-score) [16]: -0.14
- glycan array binding signal (z-score) [17]: -0.137
- glycan array binding signal (z-score) (Neu5Ac(a2-6)GalNAc): 0.091
- glycan array binding signal (z-score) [18]: -0.229
- glycan array binding signal (z-score) [19]: -0.141
- glycan array binding signal (z-score) [20]: -0.238
- glycan array binding signal (z-score) (Neu5Ac(a2-8)Neu5Ac): 3.73
- glycan array binding signal (z-score) [21]: -0.232
- glycan array binding signal (z-score) [22]: -0.219
- glycan array binding signal (z-score) [23]: 2.69
- glycan array binding signal (z-score) [24]: -0.141
- glycan array binding signal (z-score) [25]: -0.215
- glycan array binding signal (z-score) [26]: -0.154
- glycan array binding signal (z-score) [27]: 8.52
- glycan array binding signal (z-score) (Neu5Ac(b2-6)GalNAc): 0.975
- glycan array binding signal (z-score) [28]: 0.314
- glycan array binding signal (z-score) [29]: -0.197
- glycan array binding signal (z-score) [30]: 0.747
- glycan array binding signal (z-score) [31]: 0.079
- glycan array binding signal (z-score) [32]: -0.23
- glycan array binding signal (z-score) (Neu5Gc(a2-3)Gal(b1-4)Glc): -0.207
- glycan array binding signal (z-score) [33]: -0.069
- glycan array binding signal (z-score) [34]: -0.221
- glycan array binding signal (z-score) [35]: -0.222
- glycan array binding signal (z-score) (Neu5Gc(a2-6)GalNAc): -0.157
- glycan array binding signal (z-score) [36]: -0.106
